The source of these data is ChEMBL document CHEMBL1201862, “PubChem BioAssay data set” (2004).

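Dose response: 5 concentrations. Exposure: 48 h. Format: 96-well plates. Endpoint: linear interpolation; highest concentration if not reached. GI50 is the concentration that inhibits growth by half.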 The source made the active and inactive calls. No stated cut-off is given here; in the data, active = GI50 up to about 1.1 µM and inactive = higher.

This assay has as its system NCI-H322M. The assay can be described thus: growth of human tumour cells (NCI), 48 h.
Regarding `Cc1c2cc[n+](CCN3CCCCC3)cc2c(C)c2c1[nH]c1ccc(O)cc12`, the GI50 was inactive: 1.77 µM.
Turning to `O=C1Nc2ccccc2/C1=N/NC(=S)N1CCCCC1`, the GI50 was active: 0.0895 µM.
As to `O=C1c2ccccc2-n2nnnc2C2CSCN12` (centres undefined), the GI50 is inactive: > 100 µM.
In the case of `NC(=O)C(c1ccccc1)N1OC2C(=O)N(c3ccccc3)C(=O)C2C1c1c2ccccc2c(Cl)c2ccccc12` (centres undefined), the GI50 was inactive: > 100 µM.
To `CN(C)c1ccc(/C=C2\C[C@H]3[C@@H]4CCC5=CC(=O)CC[C@]5(C)[C@H]4CC[C@]3(C)C2=O)cc1` belongs inactive: > 100 µM.
Turning to `Cc1nn(C)cc1P(=S)(c1ccccc1)c1ccccc1`, the GI50 was inactive: > 100 µM.
On to `[N-]=[N+]=NC1(c2ccccc2)C(=O)c2cccc3c2N(CCC3)C1=O` (centres undefined), for which the GI50 was inactive: 38.2 µM.
For the compound `COc1ccc(C(=O)c2nc3ccccc3nc2N2CCN(c3ccccc3)CC2)cc1OC`, the GI50 was inactive: > 100 µM.
`CCCCCCc1ccc(CCCCCCCC(=O)O)o1`: the GI50 was inactive: > 100 µM.
To `O=[N+]([O-])c1ccc(C2=NOC(c3ccc(Cl)cc3)N2C23CC4CC(CC(C4)C2)C3)cc1` (centres undefined) belongs inactive: > 100 µM; to `CCC(C#N)(c1ccccc1)N(CCc1ccccc1)C(=O)c1ccccc1` (centres undefined), inactive: 63.2 µM.
The same measure for `CCn1ncc(Oc2c(Cl)cc(N)cc2Cl)c(Cl)c1=O`: inactive: 46.8 µM.
With `CCOC(=O)/C=C1\Nc2ccccc2C12CCc1c([nH]c3ccccc13)C2C(=O)OCC` (centres undefined), the GI50 is inactive: 20.7 µM.
The same measure for `CCN(CC)C(=S)N/N=C/c1ccccn1`: active: < 0.01 µM.
With `C=CCN1C(=O)/C(=C/c2ccc(C)cc2)N=C1SC/C=C/C`, the GI50 was inactive: 91.6 µM.
To `Cc1nn(-c2ccccc2)c(C)c1/C=N/NC(=O)c1sc(=S)n(-c2ccc(Cl)cc2)c1N` belongs inactive: 22.4 µM.
With `CC(C)CCCC(C)[C@H]1CC[C@H]2[C@@H]3CC[C@H]4C[C@@H](CCC=C(c5cc(Cl)c(O)c(C(=O)OC(C)C)c5)c5cc(Cl)c(O)c(C(=O)OC(C)C)c5)CC[C@]4(C)[C@H]3CC[C@]12C` (some centres undefined), the GI50 is inactive: > 50 µM.
To `COc1cccc(C2c3cc4c(cc3OC(N3CCCCC3)C2C)OCO4)c1O` (centres undefined) belongs inactive: 5.15 µM; to `Cc1ccc(-c2c(C#N)c(S)n(NS(=O)(=O)c3ccc(C)cc3)c(=O)c2C#N)cc1`, inactive: 36.2 µM; to `CCCCCCN1CCc2c(C)c(C#N)c3nc4ccccc4n3c21`, inactive: > 100 µM.
`COc1ccc(N2C(=O)C3c4[nH]c5ccc(OCc6ccccc6)cc5c4C4CCC(C(C)C)CC4C3C2=O)cc1` (centres undefined): the GI50 is inactive: > 100 µM.
In the case of `Cc1cc2c(c(C(=O)O)c1C)-c1cccc(F)c1C2=O`, the GI50 was inactive: > 100 µM.
As to `S=C(NCc1ccccn1)N/N=C/c1ccccn1`, the GI50 is active: < 0.01 µM.
In the case of `O=C1/C(=C/c2ccc(Cl)cc2)N=C(c2ccccc2)N1/N=C/c1ccccc1O`, the GI50 was inactive: 1.56 µM.
On to `CN1CCc2c(sc3ncn(Nc4ccc(F)cc4)c(=N)c23)C1`, for which the GI50 was inactive: > 100 µM.
On to `O=C(c1ccco1)N(C(=S)N1CCN(c2ccccn2)CC1)c1ccccc1`, for which the GI50 is inactive: > 100 µM.
In the case of `Cc1ccc(S(=O)(=O)C2=c3ncccc3=C3C(=O)c4ccccc4C(=O)C32)cc1` (centres undefined), the GI50 was inactive: > 83 µM.
As to `COc1c2c3c4c(c(OC)c(=O)c5c(O)cc(OC)c(c6c(OC)cc(O)c(c1=O)c63)c54)C(C(C)O)C2C(C)=O` (centres undefined), the GI50 was active: 0.782 µM.
Regarding `Oc1cc(Cl)cc2cc(Br)cnc12`, the GI50 was inactive: 24.2 µM.
On to `O=C(Nc1nc2c(=O)[nH]cnc2s1)c1ccccc1`, for which the GI50 was inactive: > 100 µM.
In the case of `N#Cc1c(N)c2c(c(-c3ccccc3)c1-c1ccccc1)C(=O)N(O)C2=O`, the GI50 was inactive: 38.7 µM.
Take `CCN(CC)CCC1CCCCN1CC(=O)N1c2ccccc2NC(=O)c2ccccc21` (centres undefined): the GI50 was inactive: > 100 µM.
Take `COc1cc(N(CCC#N)CCC#N)ccc1/C=N\NC(=O)c1ccc(C)cc1`: the GI50 is inactive: > 100 µM.
To `O=[N+]([O-])c1ccc(Sc2c3ccccc3nc3ccccc23)cc1` belongs inactive: > 100 µM.
Consider `O=[N+]([O-])c1c(Br)cc(Br)c2c1Nc1c(ccc(Cl)c1Cl)S2`, for which the GI50 is inactive: 13.1 µM.
With `COc1ccc2[nH]c3c(C)cc([N+](=O)[O-])c(C)c3c2c1`, the GI50 was inactive: 27.5 µM.
To `NNC(=O)C(=O)N/N=C1\CCCC1C(=O)CCC(=O)Nc1cccc(Cl)c1` (centres undefined) belongs inactive: > 100 µM; to `O=C(O)CC/C(=N\Nc1nsc2ccccc12)c1ccc(Cl)cc1`, inactive: 18.8 µM.
The same measure for `CC(C)OC(=S)Nc1ccc(Cl)c(/C=N/OC(C)(C)C)c1`: inactive: 19.1 µM; for `O=C(NN1C(=O)C=CC1=O)c1ccccc1Nc1ccccc1C(=O)NN1C(=O)C=CC1=O`: inactive: > 100 µM.
Take `CC(C)(C)[Si](C)(C)Oc1ccc(C2CNC(=O)C23CCC(=O)N3Cc2ccccc2)cc1` (centres undefined): the GI50 was inactive: 19 µM.
Regarding `CN=[S+]([O-])(c1ccccc1)c1ccccc1`, the GI50 is inactive: > 100 µM.
On to `O=C1CCC(c2nc3ccccc3o2)C(=O)N1` (centres undefined), for which the GI50 is inactive: > 100 µM.
For `O=C(CSc1nnc(Cc2ccccc2)o1)Nc1ccc(Cl)cc1`, the GI50 was inactive: > 100 µM.
`Cc1ccc(/C=C2\CCC/C(=C\c3ccc(O)c(CN4CCCCC4)c3)C2=O)cc1`: the GI50 is inactive: 11.9 µM.
Turning to `CSc1nc(SC)c2c(C)cn(C3OC(C)C(O)C(O)C3O)c2n1` (centres undefined), the GI50 is inactive: 82.6 µM.
On to `COc1ccc(C2CC3(c4ccccc4)ON=C(c4ccccc4)N3c3ccccc3S2)cc1` (centres undefined), for which the GI50 was inactive: > 100 µM.
As to `C(=N\NC1=NCCN1)/c1ccc(-c2cn3cc(/C=N/NC4=NCCN4)ccc3n2)cc1`, the GI50 is inactive: 15.2 µM.
The same measure for `CCN1C/C(=C\c2ccc(Cl)cc2)c2nc(N)c(C#N)c(-c3ccc(Cl)cc3)c2C1`: inactive: > 100 µM; for `COc1ccc(C2SCC(=O)N2c2ccc(-n3c(-c4ccccc4)nc4ccccc4c3=O)cc2)cc1OC` (centres undefined): inactive: > 100 µM.
Turning to `CC(C)N(C(=O)C12C3(C(=O)C(C)(C)C)C4C5(C#N)C3C1(C(=O)C(C)(C)C)C5C42C(=O)C(C)(C)C)C(C)C` (centres undefined), the GI50 is inactive: > 100 µM.
On to `c1ccc2nc(CCC3CCCCN3)ccc2c1` (centres undefined), for which the GI50 was inactive: > 100 µM.
In the case of `CCOC(=O)[C@H]1Nc2ccc(Cl)cc2[C@H]2CCC[C@@H]12`, the GI50 is inactive: > 100 µM.
As for `O=C1N(C2CCCCC2)C(=O)N1C1CCCCC1`, the GI50 was active: 0.435 µM.
To `O=S(=O)(O)c1ccc(/N=N/c2ccc(/N=N/c3c(O)ccc4ccc(S(=O)(=O)O)cc34)cc2)cc1` belongs inactive: > 100 µM; to `N#CCN1CCN(CC#N)CCN(CC#N)CCN(CC#N)CC1`, inactive: > 100 µM.
With `O=c1[nH]cc(COCCCO)c(=O)[nH]1`, the GI50 was inactive: > 100 µM.
Regarding `CC(C)(C)NC(=O)N1N=C(c2ccccc2)C1c1ccccc1` (centres undefined), the GI50 is inactive: 62.4 µM.
Consider `NCCCCCCNCc1cccc2ccccc12`, for which the GI50 is inactive: > 100 µM.
As for `C#CCC(O)c1ccccc1C(O)CC#C` (centres undefined), the GI50 was inactive: > 100 µM.
For the compound `CCOC(=O)C1C(=O)CC(O)(c2ccccc2)C(C(=O)OCC)C1c1ccc(OC)cc1` (centres undefined), the GI50 was inactive: 77.4 µM.
For `CC(=O)OC1CC2OC(Cc3ccccc32)O1` (centres undefined), the GI50 is inactive: > 100 µM.
As to `COc1ccc(C(=O)c2[nH]c(Nc3cc(C)ccn3)c(C(=S)Nc3ccccc3)c2N)cc1`, the GI50 was inactive: 12 µM.
As to `Nc1c(C(=O)O)c2ccc([N+](=O)[O-])cc2c(=O)n1-c1nc2ccccc2s1`, the GI50 is inactive: > 100 µM.
The same measure for `Nn1c(CCCCCCCCc2nnc(COc3ccccc3)n2N)nnc1COc1ccccc1`: inactive: > 100 µM.
With `CN(C)CCOc1cc2c(c3ccccc13)-c1ccccc1C2O` (centres undefined), the GI50 is inactive: 12.9 µM.
For the compound `Cc1nc2[nH]ccn2c(=O)c1CCO`, the GI50 is inactive: > 10 µM.
Consider `CC(C)CCS(=O)(=O)OCCCCOS(=O)(=O)CCC(C)C`, for which the GI50 is inactive: > 100 µM.
As to `COc1cc2ccc3c4ccccc4cnc3c2cc1OC`, the GI50 is inactive: > 100 µM.
With `Cc1cc(NS(=O)(=O)c2ccc(/N=[N+](\[O-])c3ccc(S(=O)(=O)Nc4cc(C)on4)cc3)cc2)no1`, the GI50 was inactive: > 100 µM.
With `Nc1cc(F)ccc1CC(=O)O`, the GI50 was inactive: > 100 µM.
As to `O=S(=O)(O)c1ccc2c(/N=N/c3c(O)ccc4ccccc34)cccc2c1`, the GI50 was inactive: > 100 µM.
Consider `Cc1ccc(NC(=O)c2ccc(OP(=O)(O)Nc3ccc(C)cc3)cc2)cc1`, for which the GI50 is inactive: > 100 µM.
`CC(=O)OCC(OC(C)=O)C1C[C@H]2O[C@@H]3[C@H](C[C@H]2O1)O[C@@]1(C[C@@H]3C)C[C@H](C)[C@@H]2O[C@]3(C[C@@H]2O1)C[C@H]1O[C@H]2[C@H](C)[C@H]4OC(=O)C[C@H]5CC[C@@H]6OC7[C@H]8O[C@]9(CC[C@H]%10CC(=O)[C@H](CC[C@H]%11C[C@@H](C)C(=O)C(C[C@@H]4O[C@H]2C[C@H]1O3)O%11)O%10)CC8O[C@@H]7[C@@H](O9)[C@H]6O5` (some centres undefined): the GI50 was active: 0.00251 µM.
Regarding `CC(=O)NC1C(OCc2ccccc2)OC(CO)C(O)C1OC(C)C(=O)NC(C)C(=O)N[C@@H](CCC(=O)OCCCNC1c2ccccc2Nc2cccc([N+](=O)[O-])c21)C(N)=O` (some centres undefined), the GI50 was active: 0.01 µM.
Turning to `CN(CCCCCl)P(=O)(OCC1=CC(=O)c2ccccc2C1=O)OC[C@H]1O[C@@H](n2cc(F)c(=O)[nH]c2=O)C[C@@H]1O` (some centres undefined), the GI50 is inactive: 2.47 µM.
Take `O=C(O)c1cc2c(s1)C(=O)c1sccc1C2=O`: the GI50 was inactive: 10.2 µM.
For `CC(C)(C)C(=O)CC(=O)C(C)(C)C.CC(C)(C)C(=O)CC(=O)C(C)(C)C.[SiH4]`, the GI50 is inactive: 2.21 µM.
On to `COc1ccc(CC2NCCc3c2[nH]c2ccccc32)cc1` (centres undefined), for which the GI50 was inactive: 57.9 µM.
